Measured values as given in PMC9911399, “Two distinct binding modes provide the RNA-binding protein RbFox with extraordinary sequence specificity”.
Residue numbers refer to the chain shown, from its start. This is one part of the list.

T1: RBFOX1 RRM RbFoxmut (Fox-RRM*) (Homo sapiens, UniProt Q9NWB1 109-208, R118D;E147R;N151S;E152T)
T1 sequence: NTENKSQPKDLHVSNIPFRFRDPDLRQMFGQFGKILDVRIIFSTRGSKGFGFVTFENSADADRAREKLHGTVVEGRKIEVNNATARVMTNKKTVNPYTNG

B1: UAACACC (DNA:RNA)
RNA: GGGAGACCGGAAUUCAGAUUGUCCUAACACCUUAAAUCCCGUCGUAGCCACCA
DNA 1: CAATCTGAATTCCGGTCTCCC
DNA 2: TGGTGGCTACGACGGGATT
B2: GGUCGGA (DNA:RNA)
RNA: B1 RNA with U25G, A26G, A27U, A29G, C30G, C31A
DNA 1: CAATCTGAATTCCGGTCTCCC
DNA 2: TGGTGGCTACGACGGGATT
B3: GAAAGUG (DNA:RNA)
RNA: B1 RNA with U25G, C28A, A29G, C30U, C31G
DNA 1: CAATCTGAATTCCGGTCTCCC
DNA 2: TGGTGGCTACGACGGGATT
B4: CAUGGGU (DNA:RNA)
RNA: B1 RNA with U25C, A27U, C28G, A29G, C30G, C31U
DNA 1: CAATCTGAATTCCGGTCTCCC
DNA 2: TGGTGGCTACGACGGGATT
B5: CCACAUC (DNA:RNA)
RNA: B1 RNA with U25C, A26C, C30U
DNA 1: CAATCTGAATTCCGGTCTCCC
DNA 2: TGGTGGCTACGACGGGATT
B6: UGGCUCG (DNA:RNA)
RNA: B1 RNA with A26G, A27G, A29U, C31G
DNA 1: CAATCTGAATTCCGGTCTCCC
DNA 2: TGGTGGCTACGACGGGATT
B7: AAAAUCU (DNA:RNA)
RNA: B1 RNA with U25A, C28A, A29U, C31U
DNA 1: CAATCTGAATTCCGGTCTCCC
DNA 2: TGGTGGCTACGACGGGATT
B8: GCGGAAG (DNA:RNA)
RNA: B1 RNA with U25G, A26C, A27G, C28G, C30A, C31G
DNA 1: CAATCTGAATTCCGGTCTCCC
DNA 2: TGGTGGCTACGACGGGATT
B9: AAUAAAC (DNA:RNA)
RNA: B1 RNA with U25A, A27U, C28A, C30A
DNA 1: CAATCTGAATTCCGGTCTCCC
DNA 2: TGGTGGCTACGACGGGATT
B10: CUGGGCA (DNA:RNA)
RNA: B1 RNA with U25C, A26U, A27G, C28G, A29G, C31A
DNA 1: CAATCTGAATTCCGGTCTCCC
DNA 2: TGGTGGCTACGACGGGATT
B11: AAUGCAC (DNA:RNA)
RNA: B1 RNA with U25A, A27U, C28G, A29C, C30A
DNA 1: CAATCTGAATTCCGGTCTCCC
DNA 2: TGGTGGCTACGACGGGATT
B12: CCUUACC (DNA:RNA)
RNA: B1 RNA with U25C, A26C, A27U, C28U
DNA 1: CAATCTGAATTCCGGTCTCCC
DNA 2: TGGTGGCTACGACGGGATT
B13: CGUUUGA (DNA:RNA)
RNA: GGGAGACCGGAAUUCAGAUUGUCCCGUUUGAUUAAAUCCCGUCGUAGCCACCA
DNA 1: CAATCTGAATTCCGGTCTCCC
DNA 2: TGGTGGCTACGACGGGATT
B14: UUAGCCA (DNA:RNA)
RNA: B1 RNA with A26U, C28G, A29C, C31A
DNA 1: CAATCTGAATTCCGGTCTCCC
DNA 2: TGGTGGCTACGACGGGATT
B15: GUCCGGA (DNA:RNA)
RNA: B13 RNA with C25G, G26U, U27C, U28C, U29G
DNA 1: CAATCTGAATTCCGGTCTCCC
DNA 2: TGGTGGCTACGACGGGATT
B16: GCAGUGG (DNA:RNA)
RNA: B13 RNA with C25G, G26C, U27A, U28G, A31G
DNA 1: CAATCTGAATTCCGGTCTCCC
DNA 2: TGGTGGCTACGACGGGATT
B17: CCUUGGA (DNA:RNA)
RNA: B13 RNA with G26C, U29G
DNA 1: CAATCTGAATTCCGGTCTCCC
DNA 2: TGGTGGCTACGACGGGATT
B18: UGGCCCU (DNA:RNA)
RNA: B1 RNA with A26G, A27G, A29C, C31U
DNA 1: CAATCTGAATTCCGGTCTCCC
DNA 2: TGGTGGCTACGACGGGATT
B19: CCAACCG (DNA:RNA)
RNA: B1 RNA with U25C, A26C, C28A, A29C, C31G
DNA 1: CAATCTGAATTCCGGTCTCCC
DNA 2: TGGTGGCTACGACGGGATT
B20: AAGGAUU (DNA:RNA)
RNA: B1 RNA with U25A, A27G, C28G, C30U, C31U
DNA 1: CAATCTGAATTCCGGTCTCCC
DNA 2: TGGTGGCTACGACGGGATT
B21: UCACUAU (DNA:RNA)
RNA: B1 RNA with A26C, A29U, C30A, C31U
DNA 1: CAATCTGAATTCCGGTCTCCC
DNA 2: TGGTGGCTACGACGGGATT
B22: AUGGACU (DNA:RNA)
RNA: B1 RNA with U25A, A26U, A27G, C28G, C31U
DNA 1: CAATCTGAATTCCGGTCTCCC
DNA 2: TGGTGGCTACGACGGGATT
B23: AGCUAGG (DNA:RNA)
RNA: B13 RNA with C25A, U27C, U29A, A31G
DNA 1: CAATCTGAATTCCGGTCTCCC
DNA 2: TGGTGGCTACGACGGGATT
B24: UGGCUGU (DNA:RNA)
RNA: B13 RNA with C25U, U27G, U28C, A31U
DNA 1: CAATCTGAATTCCGGTCTCCC
DNA 2: TGGTGGCTACGACGGGATT
B25: GUUGCCA (DNA:RNA)
RNA: B13 RNA with C25G, G26U, U28G, U29C, G30C
DNA 1: CAATCTGAATTCCGGTCTCCC
DNA 2: TGGTGGCTACGACGGGATT
B26: CGUGAAC (DNA:RNA)
RNA: B13 RNA with U28G, U29A, G30A, A31C
DNA 1: CAATCTGAATTCCGGTCTCCC
DNA 2: TGGTGGCTACGACGGGATT
B27: AGCUGCA (DNA:RNA)
RNA: B13 RNA with C25A, U27C, U29G, G30C
DNA 1: CAATCTGAATTCCGGTCTCCC
DNA 2: TGGTGGCTACGACGGGATT
B28: CGUGUGC (DNA:RNA)
RNA: B13 RNA with U28G, A31C
DNA 1: CAATCTGAATTCCGGTCTCCC
DNA 2: TGGTGGCTACGACGGGATT
B29: GGGAUGG (DNA:RNA)
RNA: B13 RNA with C25G, U27G, U28A, A31G
DNA 1: CAATCTGAATTCCGGTCTCCC
DNA 2: TGGTGGCTACGACGGGATT
B30: CCAGUGC (DNA:RNA)
RNA: B13 RNA with G26C, U27A, U28G, A31C
DNA 1: CAATCTGAATTCCGGTCTCCC
DNA 2: TGGTGGCTACGACGGGATT
B31: GGACAGG (DNA:RNA)
RNA: B1 RNA with U25G, A26G, C30G, C31G
DNA 1: CAATCTGAATTCCGGTCTCCC
DNA 2: TGGTGGCTACGACGGGATT

target: T1, RBFOX1 RRM RbFoxmut (Fox-RRM*); experiment: EMSA; HiTS-Eq, 1 nM pool, 10 min; buffer printed only for the single-RNA assays: 10 mM Tris pH 7.5, 150 mM NaCl, 3.4 mM EDTA, 0.001% NP-40, 30 C; details: tags: His6 N-terminal (pET28a); label: 5' 32P
Procedure, shortened: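 These values rest on relative association constants, computed from read-count changes of each RNA species versus the control reaction and normalised to the cognate motif. Reads came from free RNA recovered by 8% native PAGE after purified RbFox RRM (wild type or mutant) at increasing concentrations was equilibrated for 10 min in 50 µL with 1 nM of a 5′-radiolabelled pool with 7 randomized nucleotides and DNA-annealed flanks.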

Binder	binding signal
B1	0.0638 KA relative to UGCAUGU
B2	0.0773 KA relative to UGCAUGU
B3	0.0907 KA relative to UGCAUGU
B4	0.114 KA relative to UGCAUGU
B5	0.0576 KA relative to UGCAUGU
B6	0.304 KA relative to UGCAUGU
B7	0.0542 KA relative to UGCAUGU
B8	0.0917 KA relative to UGCAUGU
B9	0.0401 KA relative to UGCAUGU
B10	0.092 KA relative to UGCAUGU
B11	0.0794 KA relative to UGCAUGU
B12	0.0957 KA relative to UGCAUGU
B13	0.205 KA relative to UGCAUGU
B14	0.101 KA relative to UGCAUGU
B15	0.0725 KA relative to UGCAUGU
B16	0.0932 KA relative to UGCAUGU

Binder	binding signal
B17	0.0815 KA relative to UGCAUGU
B18	0.0838 KA relative to UGCAUGU
B19	0.145 KA relative to UGCAUGU
B20	0.0826 KA relative to UGCAUGU
B21	0.0711 KA relative to UGCAUGU
B22	0.0593 KA relative to UGCAUGU
B23	0.126 KA relative to UGCAUGU
B24	0.299 KA relative to UGCAUGU
B25	0.0944 KA relative to UGCAUGU
B26	0.0865 KA relative to UGCAUGU
B27	0.195 KA relative to UGCAUGU
B28	0.155 KA relative to UGCAUGU
B29	0.318 KA relative to UGCAUGU
B30	0.117 KA relative to UGCAUGU
B31	0.0786 KA relative to UGCAUGU
